# Values joined by “and” are separate entries in the source; they are usually repeats but may differ in a detail not shown here. Identical values can stand only once. Hit rate of the full screen: of about 360,000 compounds, about 2,600 (0.72%) were called active. Inconclusive means that the source gave no clear call. Such entries were picked first, then a sample of the others. The call rests on the fitted dose curve; in most records, active means well fitted inhibition curve with a large enough effect; inconclusive means small, poorly fitted or top-dose-only effect; inactive means no such curve, though single readings can be large or run the other way. A potency beside an inconclusive call is a rough fit, not a confirmed value.
# Assay: Primary qHTS for Inhibitors of ATXN expression; further: nearly all actives have a fitted effect of over 55% in size
# Settings: HEK-293 ATXN2-luciferase reporter, luminescence, 24 h; activity change, negative = inhibition: at 57 µM (top of the series)
# Method in brief: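 ATXN2-luciferase reporter cells (luciferase flanked by upstream and downstream ATXN2 gene portions) were treated 24 h at 37 °C with compounds at up to 57 uM. SteadyGlo luminescence gave expression; GF-AFC fluorescence gave viability.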
# On the % scale 0 is the no-effect control and ±100 the full control effect; potency means the concentration at half of the fitted maximal effect; tags describe the fitted curve by direction and shape.
Compound,Potency,"activity change, negative = inhibition"
Nc1nc(N)c2c(ccc3c2ccn3Cc2cccc([N+](=O)[O-])c2)n1,"inconclusive: 0.398 µM [inhibitor, full curve, poor fit]",–
Nc1cccc2c1C(=O)N(CCOc1ccccc1F)C2=O,"inconclusive: 39.8 µM [inhibitor, single point]",–
CCOc1ccc(NC(=O)CCCc2cc(-c3ccc(OCC)cc3)on2)cc1,"inconclusive: 1.12 µM [inhibitor, full curve, poor fit]",–
CCc1ccc(N(CC)C(=O)c2ccc3c(Cl)c4c(nc3c2)CCC4)cc1,"inconclusive: 28.2 µM [inhibitor, partial curve, poor fit]",–
CC(C)N1[N]C(=C2C=c3cc(O)ccc3=N2)c2c(N)ncnc21,"inconclusive: 27.3 µM [inhibitor, single point]",–
CCN(CC)CCCNc1nc2ccccc2c2nc(-c3ccncc3)nn12,"inconclusive: 15.8 µM [inhibitor, partial curve, poor fit]",–
COc1ccc(CN2CCN(C(c3ccc(F)cc3)c3ccc(F)cc3)CC2)c(OC)c1OC,"active: 39.8 µM and inconclusive: 39.8 µM [inhibitor, single point]",–
CCOC(=O)c1cnc2ccc(OCC)cc2c1NCc1ccccc1,"inconclusive: 39.8 µM [inhibitor, single point]",–
Cc1ccc(C)c(Cn2cnc3c(cnn3C(C)(C)C)c2=O)c1,–,inactive: 0.575%
C[C@@H]1CN([C@@H](C)CO)S(=O)(=O)c2ccc(Br)cc2O[C@H]1CN(C)C(=O)Nc1ccc(C(F)(F)F)cc1,"inconclusive: 28.2 µM [inhibitor, single point]",–
CCCC1=Nc2cc(C(=O)N3CCC(C(=O)OCC)CC3)ccc2Sc2ccccc21,inactive,–
N#Cc1cc([N+](=O)[O-])ccc1NCCCn1ccnc1,–,inactive: 6.26%
Cn1c(=O)c2c(nc(C3CC4C5CCC(C5)C4C3)n2C)n(C)c1=O (centres undefined),–,inactive: 6.65%
COc1ccccc1C(=O)N(c1ccc(C)cc1)S(=O)(=O)c1ccc(Cl)cc1,"inconclusive: 39.8 µM [inhibitor, single point]",–
CC(=O)Nc1nc(-c2ccc3c(c2)OCO3)cs1,–,inactive: 44.3%
Cc1ccc2oc3c(c(=O)c2c1)C(c1ccc(O)cc1)N(c1nc(C)c(C)s1)C3=O (centres undefined),–,inactive: 1.97%
CC(C)C[C@H](NC(=O)c1[nH]cnc1C(=O)Nc1ccc(CNC(=O)OC(C)(C)C)cc1)C(=O)OCc1ccccc1,active: 28.2 µM,–
COc1ccc(-c2noc(CSc3nc4ccccc4[nH]3)n2)cc1OC,"inconclusive: 17.8 µM [inhibitor, partial curve, poor fit]",–
COc1cc(/C(C)=N/N2CCN(c3ccccc3OC)CC2)ccc1O,–,inactive: 13.3%
Cc1ccc2nc(-c3ccccn3)c(Nc3ccccc3C)n2c1,"active: 4.47 µM and inconclusive: 22.4 µM [inhibitor, single point]",–
Brc1ccccc1CN1CCN(Cc2c[nH]c3ccccc23)CC1,"inconclusive: 28.2 µM [inhibitor, partial curve, poor fit]",–
Cc1cccc(-c2ccc3[nH]c4c(c3c2)CCN2C[C@@H]([C@H](C)O)[C@@H](N(C)C(=O)NC3CCCCC3)C[C@@H]42)c1,–,inactive: -11.8%

Compound,Potency,"activity change, negative = inhibition"
CC(C)(C)OC(=O)NCc1ccc(CNC(=O)c2[nH]cnc2C(=O)Nc2ccccc2F)cc1,"inconclusive: 28.2 µM [inhibitor, single point]",–
O=C1C(Cl)=C(Nc2ccc(O)cc2)C(=O)c2ccccc21,active: 15.8 µM,–
Nc1ccc(C(=O)N/N=C\c2cc(N=Nc3cccc4ccccc34)ccc2O)cc1,active: 5.62 µM,–
COc1cccc(-c2noc(CCCC(=O)NC3CCCC3)n2)c1,–,inactive: -16.6%
O=C(COc1ccccc1[N+](=O)[O-])N1CCC(Cc2ccccc2)CC1,"inconclusive: 10 µM [inhibitor, partial curve, poor fit]",–
COc1ccc(NC(=O)CCn2cnc3onc(-c4ccc(F)cc4)c3c2=O)cc1OC,"inconclusive: 3.55 µM [inhibitor, partial curve, poor fit]",–
O=C(COC(=O)C(O)c1ccccc1)NC12CC3CC(CC(C3)C1)C2 (centres undefined),–,inactive: -2.29%
Cc1cccc(NC(=O)c2cc3c(=O)n(Cc4cccnc4)ccc3nc2C)c1,–,inactive: 4.04%
COc1ccc(Nc2oc(COc3ccc(Cl)cc3)nc2C#N)cc1,active: 14.1 µM,–
CCCCCN1C(C(=O)c2ccccc2)=C(OC(=O)CC)c2ccccc2S1(=O)=O,–,inactive: -20%
COc1ccc2oc(/C=C/N(C)C)c(C(=O)c3ccc(Cl)cc3)c2c1,"inconclusive: 22.4 µM [inhibitor, partial curve, poor fit]",–
CC(C)C[C@H]1CNC(=S)N1C[C@H]1CCCN1C[C@H](Cc1ccc(O)cc1)N1C[C@H](CC(C)C)N(CCc2ccccc2)C1=S,"inconclusive: 39.8 µM [inhibitor, single point]",–
Cc1c(C(=O)NCc2cccnc2)oc2ccc(S(=O)(=O)N3CCCC(C)C3)cc12 (centres undefined),"inconclusive: 39.8 µM [inhibitor, partial curve, poor fit]",–
O=C(CN1CCCC1)Nc1ccc(-c2nc3cc(NC(=O)CN4CCCC4)ccc3o2)cc1,"inconclusive: 39.8 µM [inhibitor, single point]",–
CCCCn1c(Oc2ccc(C(=O)OC)cc2)nc2c1c(=O)n(C)c(=O)n2C,"inconclusive: 39.8 µM [inhibitor, single point]",–
Cc1ccc(-c2cn(-c3ccccc3)c3[n+]2CCCS3)cc1,"inconclusive: 2.51 µM [inhibitor, full curve]",–
CC(=O)c1cccc(NC(=S)NC2CCCCC2)c1,–,inactive: 4.34%
CC(C)c1ccc(NC(=O)C2CC3CCC2C3)cc1 (centres undefined),–,inactive: 117%
CC(C)c1ccc(Nc2c(-c3ccccn3)nc3ccccn23)cc1,"inconclusive: 3.98 µM [inhibitor, full curve]",–
CCN(CC)S(=O)(=O)c1ccc(-n2cnc3cc(C)c(C)cc32)nc1,–,inactive: -21.8%
CC(C)(C)OC(=O)NCCCC[C@H](NC(=O)c1[nH]cnc1C(=O)Nc1ccc(Cl)cc1)C(=O)OC(C)(C)C,"inconclusive: 39.8 µM [inhibitor, single point]",–
CN1C(=S)N(c2cccnc2)C(=O)/C1=C\c1ccc(N(C)C)cc1,"inconclusive: 25.1 µM [inhibitor, partial curve, poor fit]",–

Compound,Potency,"activity change, negative = inhibition"
Cc1ccc(-c2nc3ncccc3o2)cc1NC(=O)c1sc2ccccc2c1Cl,"inconclusive: 3.16 µM [inhibitor, partial curve, poor fit]",–
COc1ccc(CCNC(=O)C(=O)NCC(c2cccs2)S(=O)(=O)c2ccc(F)cc2)cc1 (centres undefined),"inconclusive: 39.8 µM [inhibitor, single point]",–
CCc1ccc(C(=O)CC2(O)C(=O)N(CCc3ccccc3)c3ccc(Cl)cc32)cc1 (centres undefined),"inconclusive: 39.8 µM [inhibitor, single point]",–
c1ccc(CN2CCC(Nc3nc(-c4cccnc4)nc4ccccc34)CC2)cc1,"inconclusive: 10.6 µM [inhibitor, partial curve, poor fit]",–
C#CC(=O)N(c1ccc(OC)cc1OC)C(C(=O)NC1CCCC1)c1cccs1 (centres undefined),active: 1.78 µM,–
Cc1ccccc1/C=C/C(=O)c1ccc([N+](=O)[O-])o1,active: 12.6 µM,–
O=C(OCC(=O)N1CCc2ccccc21)c1c2c(nc3ccccc13)CCCCC2,"inconclusive: 39.8 µM [inhibitor, single point]",–
CCn1c2ccccc2c2cc(NC(=O)COC(=O)c3cccc(S(=O)(=O)NC)c3)ccc21,active: 15.8 µM,–
CCCCCc1ccc(OCCCC[n+]2cccc(C)c2)c(CCCCC)c1,active: 10 µM,–
COc1cc2c(cc1OC)CN(C(=O)c1cc(C3CC3)nn1-c1ccccc1)CC2,–,inactive: -16.4%
CCOc1ccc(CCN2C(=O)C(=O)N([C@@H](CC(C)C)CN3CCC[C@H]3CN3C(=O)C(=O)NC[C@@H]3CC(C)C)C[C@@H]2Cc2ccccc2)cc1,"inconclusive: 39.8 µM [inhibitor, single point]",–
O=C(OCc1cn([C@H]2C[C@H](c3ccccc3)N(CC3CCCCC3)C[C@@H]2O)nn1)c1ccccc1,"inconclusive: 39.8 µM [inhibitor, single point]",–
CCc1cc2c3c(c1)C1(C(=O)N3C(C)(C)CC2C)C(C#N)=C(N)N2C(=C1C#N)Nc1ccccc12 (centres undefined),"inconclusive: 39.8 µM [inhibitor, single point]",–
CCOc1cccc(/C=N/NC(=O)c2ccc3c(c2)OCCO3)c1O,"inconclusive: 5.62 µM [inhibitor, full curve, poor fit]",–
O=C(Oc1c(Cl)cc(Cl)c2cccnc12)c1cccc([N+](=O)[O-])c1,active: 20 µM,–
Cc1ccc(Cl)cc1N1CCN(C(=O)c2ccc(CS(=O)(=O)c3ccc(Br)cc3)o2)CC1,"inconclusive: 35.5 µM [inhibitor, single point]",–
C=C1C(=O)OC2C1CCC(C)=CCCC1(C)OC21 (centres undefined),"inconclusive: 35.5 µM [inhibitor, single point]",–
CC(C)CC1C(=O)N(Cc2cn(CCC3OCCO3)nn2)CCS(=O)(=O)N1Cc1ccc(-c2ccncc2)cc1 (centres undefined),–,inactive: -9.75%
Cc1ccc(C(=O)N2CCN(c3ccc(NC(=S)NC(=O)c4cccs4)cc3)CC2)cc1,"inconclusive: 20 µM [inhibitor, partial curve, poor fit]",–
Cc1nn2c(N3CCN(C)CC3)c3c(nc2c1-c1ccccc1)CCCC3,"inconclusive: 10 µM [inhibitor, partial curve, poor fit]",–

# From PubChem BioAssay AID1745845 (National Center for Advancing Translational Sciences (NCATS), 2022)
